# Assay results as given in the supplement of paper PMC10037445.
# ± gives the standard deviation of the averaged measurements. In all, about 2,900 compounds were measured (“IRF Lucia reporter activity, fold change vs agonist alone”: median about 0.9, highest 2% from about 2.8 on). The list shows a part of the results.
# How the values were obtained:
# [1] = system: RAW-Dual; test: IRF Lucia reporter activity, fold change vs agonist alone; cytotoxicity flag (confluency mask): not cytotoxic; higher = enhanced IRF activity
# Outline: (§1)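 Library stock was pin-tooled at 50 nL into 384-well plates of RAW-Dual macrophages (50,000 cells/well, DMEM), followed 1 h later by a PRR agonist, and the cells were kept at 37 °C, 5% CO2. Supernatant collected after 20 hours was read for IRF by QuantiLuc luminescence and for NF-κB by QuantiBlue absorbance at 620 nm. Reporter activity is fold change over agonist-alone wells, and a well counted as cytotoxic when its IncuCyte confluency was below 70% of agonist controls in both mask sets.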
# [2] = system: RAW-Dual; test: IRF Lucia reporter activity, fold change vs agonist alone; higher = enhanced IRF activity; conditions: agonist: MPLA (TLR4) […]
# Outline: as §1
# [3] = system: RAW-Dual; test: IRF Lucia reporter activity, fold change vs agonist alone; cytotoxicity flag (confluency mask): cytotoxic (confluency <70% of control); higher = enhanced IRF activity
# Outline: as §1
# [4] = agonist: 3'3'-cGAMP (STING) 10 ug/mL
# [5] = library stock concentration (final ~1000-fold dilution): 10 mM, cytotoxicity flag (confluency mask): not cytotoxic
compound,measurement,setting,value
COc1cc(/C=C/C(=O)O)cc(OC)c1O (library stock concentration (final ~1000-fold dilution): 10 mM),IRF Lucia reporter activity,[1]; [4],0.912
same,IRF Lucia reporter activity,[1]; agonist: LPS (TLR4) 0.1 ug/mL,1.1
O=C(O)/C(Cc1ccccc1[N+](=O)[O-])=N/Nc1nc(-c2ccc(Cl)c(Cl)c2)cs1,IRF Lucia reporter activity,[2]; [5],0.95
O=C(O)/C(Cc1ccccc1[N+](=O)[O-])=N/Nc1nc(-c2ccc(Cl)c(Cl)c2)cs1 (library stock concentration (final ~1000-fold dilution): 10 mM),IRF Lucia reporter activity,[1]; [4],0.74
same,IRF Lucia reporter activity,[1]; agonist: LPS (TLR4) 0.1 ug/mL,0.785
Nc1ccc(C(=O)O)c(O)c1,IRF Lucia reporter activity,[2]; [5],1.119 ± 0.011
Nc1ccc(C(=O)O)c(O)c1 (library stock concentration (final ~1000-fold dilution): 10 mM),IRF Lucia reporter activity,[1]; [4],1.05 ± 0.015
same,IRF Lucia reporter activity,[1]; agonist: LPS (TLR4) 0.1 ug/mL,1.16 ± 0.12
CC(C)n1c(=O)n(C)c2cnc3cc(F)c(-c4ccc(OCCCN5CCCCC5)nc4)cc3c21 (library stock concentration (final ~1000-fold dilution): 10 mM),IRF Lucia reporter activity,[1]; [4],0.432
same,IRF Lucia reporter activity,[1]; agonist: LPS (TLR4) 0.1 ug/mL,0.587
CCOc1nc2cccc(C(=O)O)c2n1Cc1ccc(-c2ccccc2-c2nn[nH]n2)cc1,IRF Lucia reporter activity,[2]; [5],1
CCOc1nc2cccc(C(=O)O)c2n1Cc1ccc(-c2ccccc2-c2nn[nH]n2)cc1 (library stock concentration (final ~1000-fold dilution): 10 mM),IRF Lucia reporter activity,[1]; [4],1.09
same,IRF Lucia reporter activity,[1]; agonist: LPS (TLR4) 0.1 ug/mL,0.934
COc1cc(CCc2cc(NC(=O)c3ccc(N4CC(C)NC(C)C4)cc3)n[nH]2)cc(OC)c1 (configuration not stated) (library stock concentration (final ~1000-fold dilution): 10 mM),IRF Lucia reporter activity,[3]; [4],0.108
same,IRF Lucia reporter activity,[3]; agonist: LPS (TLR4) 0.1 ug/mL,0.319
COc1cc(CCc2cc(NC(=O)c3ccc(N4CC(C)NC(C)C4)cc3)n[nH]2)cc(OC)c1 (configuration not stated),IRF Lucia reporter activity,"[2]; library stock concentration (final ~1000-fold dilution): 10 mM, cytotoxicity flag (confluency mask): cytotoxic (confluency <70% of control)",0.69
CCCc1cc2c(N3CCN(C4=NCC(C)(C)S4)CC3)ncnc2s1 (library stock concentration (final ~1000-fold dilution): 10 mM),IRF Lucia reporter activity,[1]; [4],1.18
same,IRF Lucia reporter activity,[1]; agonist: LPS (TLR4) 0.1 ug/mL,1.04
CNCc1ccc(C)c(NC(=O)c2ccc(Nc3nc(-c4ccccc4)c4ccccc4n3)cc2)c1 (library stock concentration (final ~1000-fold dilution): 10 mM),IRF Lucia reporter activity,[1]; [4],0.995
same,IRF Lucia reporter activity,[1]; agonist: LPS (TLR4) 0.1 ug/mL,1.04
CNCc1ccc(C)c(NC(=O)c2ccc(Nc3nc(-c4ccccc4)c4ccccc4n3)cc2)c1,IRF Lucia reporter activity,[2]; [5],1.01
COc1cc2nc(N3CCN(C(=O)C4CCCO4)CC3)nc(N)c2cc1OC.Cl.O.O (configuration not stated) (library stock concentration (final ~1000-fold dilution): 10 mM),IRF Lucia reporter activity,[1]; [4],1.11
same,IRF Lucia reporter activity,[1]; agonist: LPS (TLR4) 0.1 ug/mL,0.802
COc1cc2nc(N3CCN(C(=O)C4CCCO4)CC3)nc(N)c2cc1OC.Cl.O.O (configuration not stated),IRF Lucia reporter activity,[2]; [5],0.867
c1ccc(-c2nn3c(c2-c2ccnc4cc(OCCN5CCOCC5)ccc24)CCC3)nc1 (library stock concentration (final ~1000-fold dilution): 2 mM),IRF Lucia reporter activity,[1]; [4],0.779
same,IRF Lucia reporter activity,[1]; agonist: LPS (TLR4) 0.1 ug/mL,0.781
c1ccc(-c2nn3c(c2-c2ccnc4cc(OCCN5CCOCC5)ccc24)CCC3)nc1,IRF Lucia reporter activity,"[2]; library stock concentration (final ~1000-fold dilution): 2 mM, cytotoxicity flag (confluency mask): not cytotoxic",1.57
